This passage reports self-cleavage results from the RNAGym collection of RNA variant scans (doi:10.1093/nar/gkz1192).

B1: CPEB3 Ribozyme (parent)
chain: UAACAGGGGGCCACAGCAGAAGCGUUCACGUCGCAGCCCCUGUCAGAUUCUGGUGAAUCUGCGAAUUCUGCUGUAUAUCUC

The source gives no read counts; variants with many changes may rest on few reads.

In the data set the parent is B1. Briefly: self-cleavage, relative activity (ratio to wild type); higher = more cleavage; in vitro, sequencing. In a few lines:
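Relative activity compares each variant's cleaved/total read fraction with that of the unmutated ribozyme. To get these fractions, barcoded CPEB3 ribozyme libraries from rounds of error-prone PCR were transcribed with T7 RNA polymerase for 5 hours at 37°C and then given 15 min of DNase I treatment before EDTA was added. The RNAs were reverse transcribed with template switching and sequenced on Illumina, and DNA sequencing linked barcodes to variants. A minimum of 5 reads applied, and three batches were averaged.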
Regarding UAACAGGGGGCCACAGCUGAAGCGUUCACGUCGCAGCCCCUGUCAGAUUCUGGUGAAUCUGCGAAUUAUGCUGCAUAUCCC [A18U C68A U74C U80C], the self-cleavage amounted to 0.21.

UAACAGGGGGCCACAGCUGAAGCGUUCACGUCGCAGCCCCUGUCUGACUCUGGUGAAUCUGCGAAUUCUGCGGUAUAUCAC [A18U A45U U48C U72G U80A]: the self-cleavage worked out at 0.08. As for UAACAGGGGGCCACAGCUGAAGCGUUCACGUCGCAGUCCCUGUCAGAUUCUGGUGAAUCUGCCAACUCCGCUGUAUUUCUC [A18U C37U G63C U66C U69C A77U], the figure is 0.13. On to UAACAGGGGGCCACAGCUGAAGCGUUGACGUCGCAGCCCCUGUCAGAUUCUGGUGGAUCUGCGUAUUCGGCAGUAUAUCUC [A18U C27G A56G A64U U69G U72A], for which the self-cleavage was 0.03. Then UAACAGGGGGCCACAGCUGAAGCGUUCACGUCGCGGCCCCUGCCAGAUUCUGGUGAAUCUGCGAAUUCUGCUGUAUAUCUC [A18U A35G U43C], with 0.28; and UAACAGGGGGCCACAGCUGAAGCGUUCACGUCGCAGCCCCUGUUAGAUUCUGGUGAAUCUGCGAAUUCUGCUGUACAUCUC [A18U C44U U76C], with 0.64.

Take UAACAGGGGGCCACAGCUGAAGCGUUCGCGUCGCAGCCCCCGUCAGACUCUGGUGGAUCUGCGAAUUCUGCUGUAUAUCUC [A18U A28G U41C U48C A56G]: the self-cleavage was 0.04. UAACAGGGGGCCACAGCUGAAGCGUUCACGUCGCAGCCCCUGUCAGGUUCUGGUGAAUCUGCGAAUUCUGCCGUAUAUCUC [A18U A47G U72C]: the self-cleavage was determined as 0.34.

With UAACAGGGGGCCACAGCUGAAGCGUUCACGUCGCAGCCCCUGUCAGGUUCUGGUGAAUCUGCGAAUUCUGCGGUAUAUCUC [A18U A47G U72G], the self-cleavage amounted to 0.21.

With UAACAGGGGGCCACAGCUGAAGCGUUCAUGUCGCAGCCCCAGUCAGGUUCUGGUGAAUCUGCGAUUCCUGCUGUAUAUCUC [A18U C29U U41A A47G A65U U67C], the self-cleavage turned out to be 0.07. With UAACAGGGGGCCACAGCUGAAGCGUUCACGUCGCUGCCCCUGUCUGAUUCUGGUGAAUCUGCGAAUUCUGCUGUAUAUCUC [A18U A35U A45U], the self-cleavage was determined as 0.16. As for UAACAGGGGGCCACAGCUGAAGCGUUCACGUCGCUGCCCCUGUCGGAUUCUGGUGAAUCUGCGAAUUCUGCUGUAUAUCUC [A18U A35U A45G], the figure is 0.37; as for UAACAGGGGGCCACAGCUGAAGCGUUCACGUUGCAGCCCCUGUCAGAUUCUGGUGAAUCUGCGAAUACUACUGUAUAUCUC [A18U C32U U67A G70A], 0.1; as for UAACAGGGGGCCACAGCUGAAGCGUUCACACCGCAGCCCCUGUCGGAUUCUGGUGAAUCUGCGAAUUCUGCUGCGUAUCUC [A18U G30A U31C A45G U74C A75G], 0.22. As for UAACAGGGGGCCACAGCUGAAGCGUUCACGUCGCGGCCCCUGUCAGAUACAGGUGAGUCUGCGAGUUCUGCUGUAUAUCUC [A18U A35G U49A U51A A57G A65G], the figure is 0.33; as for UAACAGGGGGCCACAGCUGAAGCGUUCACGUCGCGGCCCCUGACAGAUUCUGGUGAGUCUGCGAAUUCUGCUGUAUAUCUC [A18U A35G U43A A57G], 0.96; as for UAACAGGGGGCCACAGCUGAAGCGUUCAUGUCGCAGCCCCUGUCAGAUUCUGGUGAGUCUGCGAGUUCUGCUGUAUAUCUC [A18U C29U A57G A65G], 0.48. As for UAACAGGGGGCCACAGCUGAAGCGUUCACGUCGCGGCCCCUGCCAGAUUCUGGUGAUUCUGCGAAUGCUGCUGUAUAUCUC [A18U A35G U43C A57U U67G], the figure is 0.05; as for UAACAGGGGGCCACAGCUGAAGCGUUCUCGUCGCAGCUCCUGUCGGAUUCUGGUGAAUCUGCGUAUUCUGCUGUAUACCUC [A18U A28U C38U A45G A64U U78C], 0.05; as for UAACAGGGGGCCACAGCUGAAGCGUUCGCAUCGCAGCCCCUGUCAGAUUCUGGUGAAUCUGCGAAUUCUGCCGUAUAUCUC [A18U A28G G30A U72C], 0.08. As to UAACAGGGGGCCACAGCUGAAGCACUCACGUCGCAGCCCCUGUCAGAUUCUGGUGAAUCUGCGAAUUCUGCUGUAUGUCUC [A18U G24A U25C A77G], the self-cleavage is 0.03. In the case of UAACAGGGGGCCACAGCUGAAGCGUUCUCGUCGCAGCCCCUGUCAGAUUCUGGUGAGUCUGCAUAUUCUGCUGUAUAUUUC [A18U A28U A57G G63A A64U C79U], the self-cleavage was 0.09. As for UAACAGGGGGCCACAGCUGAAGCGUUCACGUCGCAGCCCCUGUCAGAUUCUGGUGGACCUGCGAGUCCUGCUGUAUAUCUC [A18U A56G U58C A65G U67C], the figure is 0.2. In the case of UAACAGGGGGCCACAGCUGAAGCGUUCACGUCGCAGCCCUUGUCAGAUUCUGGUGAAACUGCGAAUUCCGCUGUAUAUCUC [A18U C40U U58A U69C], the self-cleavage came to 0.05.

With UAACAGGGGGCCACAGCUGAAGCGUUAACGUCGCAGCCCCUGUCAGAUUCUGGUGAACCUGCGAAUUCAGCUGUAUAUCUC [A18U C27A U58C U69A], the self-cleavage was 0.17. Then UAACAGGGGGCCACAGCUGAAGCGUUCGCGUCGCAGCUCCUGACAGAUUCUGGUGAGUCUGCGAAUUCUGCUGUAUAUCUC [A18U A28G C38U U43A A57G], with 0.36.

As for UAACAGGGGGCCACAGCUGAAGCGUUCACGUCGCGGCCCCAGUCAGAUUCUGGUGAAUCUGCGGAUUCUGCUGUAUAUCUC [A18U A35G U41A A64G], the self-cleavage came to 0.26. Then UAACAGGGGGCCACAGCUGAAGCGUUCACGUCGCAGCCCCUGUCAGAUUCUGGUGAAUUUGCGUAUUCUGCCGUAUAUCCC [A18U C59U A64U U72C U80C], with 0.18; and UAACAGGGGGCCACAGCUGAAGCGUUCACGUCACAGCCCCUGUCAGAUUCUGGUGAAUCUGCGAAUUCUGCUGAAUAUCAC [A18U G33A U74A U80A], with 0.21; and UAACAGGGGGCCACAGCUGAAGCGUUCACGUCGCAGCCCCUGUCAGAUUCUGGUGAAUCUGCGUAUUCUGCUGUAUAUCUA [A18U A64U C81A], with 0.26. Then UAACAGGGGGCCACAGCUGAAGCGUUCUCGUCGCAGCCCCUGUCAGAUUCUGGUGAGUCUGCGAAUUCUGCUGUACAUCUC [A18U A28U A57G U76C], with 0.17; and UAACAGGGGGCCACAGCUGAAGAGUCCGCGCCGCAGCCCCUGUCAGAUUCUGUUGAAUCUGCGGAUUCUGCUGUAUAUCUC [A18U C23A U26C A28G U31C G53U A64G], with 0.06; and UAACAGGGGGCCACAGCUGAAGCGUUCACGUCGCAGCCCCUGUCAGAUUCUGGUGAGUCUGCGGACUCUGCUGUAUAUCUC [A18U A57G A64G U66C], with 0.25. Regarding UAACAGGGGGCCACAGCUGAAGCGUUAACGUCGCAGCCCCUGUCAGAUUCUGGUGGAUCUGCGAAUUCUUCUGUAUACCUC [A18U C27A A56G G70U U78C], the self-cleavage was found to be 0.08.
